According to paper PMC5341030:
These are yes or no findings as the source states them, for the method shown. In cells and extracts the contact can be indirect. Some entries that bind do so weakly or less than the wild type. For some assays here: Where a sequence is shown, tags or fusion partners need not be part of it. Values belong to the molecule of their own block, whether it stands above or below them.

Sequences of proteins named here, by UniProt entry; tags and fusion partners are left off.
UniProt Q9C4Z6: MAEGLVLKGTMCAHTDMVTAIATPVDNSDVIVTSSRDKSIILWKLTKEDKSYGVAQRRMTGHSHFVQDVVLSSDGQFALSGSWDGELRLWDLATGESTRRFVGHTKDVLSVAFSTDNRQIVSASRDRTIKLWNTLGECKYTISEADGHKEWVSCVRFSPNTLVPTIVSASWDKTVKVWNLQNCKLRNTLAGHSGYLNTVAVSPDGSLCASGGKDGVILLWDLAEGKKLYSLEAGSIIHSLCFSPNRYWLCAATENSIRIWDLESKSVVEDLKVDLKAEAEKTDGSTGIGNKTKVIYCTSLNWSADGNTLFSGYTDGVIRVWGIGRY
UniProt Q7G1L2: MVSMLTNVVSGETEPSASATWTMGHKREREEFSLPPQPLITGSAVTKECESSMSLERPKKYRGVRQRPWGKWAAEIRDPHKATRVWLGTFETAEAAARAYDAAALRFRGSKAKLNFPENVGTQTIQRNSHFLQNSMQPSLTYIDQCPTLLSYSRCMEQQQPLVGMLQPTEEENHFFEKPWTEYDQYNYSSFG

Assays:
GST-RACK1B (Arabidopsis) = GST-RACK1B (Arabidopsis) (UniProt Q9C4Z6); test: pull-down; 100 uL crude extract of GST-RACK1B as bait on glutathione-Sepharose beads, equal volumes of crude extracts of His-HA-RAP2.6 or truncated RAP2.6 as prey, 1 h on ice; binding buffer 50 mM Tris-HCl pH 7.8, 200 mM NaCl, 1% Triton X-100, 10% glycerol; immunoblot with anti-HA; only the target purified
HA-RAP2.6 (Arabidopsis) = HA-RAP2.6 (Arabidopsis) (UniProt Q7G1L2); test: co-IP; Myc-RACK1B and HA-RAP2.6 co-expressed in Col-0 mesophyll protoplasts, with or without 50 uM ABA for 20 h; precipitation with anti-HA antibodies and protein G agarose, lysis buffer A (25 mM Tris-HCl, 200 mM NaCl pH 7.8, 2 mM DTT, 1% Triton X-100, 1 mM PMSF), 4 °C; immunoblot
GST-SCE1A (Arabidopsis) = biological target: T1, GST-SCE1A (Arabidopsis) (UniProt Q42551); test: pull-down; GST-SCE1A (or GST) as bait on glutathione-Sepharose beads, HA-RACK1B recombinant protein as prey (E. coli crude extract); binding buffer 50 mM Tris-HCl pH 7.8, 200 mM NaCl, 1% Triton X-100, 10% glycerol; 1 h on ice; immunoblot; only the target purified
T1 sequence: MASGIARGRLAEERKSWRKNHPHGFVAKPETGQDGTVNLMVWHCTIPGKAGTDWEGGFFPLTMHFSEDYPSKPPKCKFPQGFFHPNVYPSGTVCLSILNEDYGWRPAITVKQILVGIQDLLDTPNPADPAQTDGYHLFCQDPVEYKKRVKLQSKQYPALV

GST-SIZ1 (Arabidopsis) = biological target: T2, GST-SIZ1 (Arabidopsis) (UniProt Q680Q4); test: pull-down; 500 uL crude extract of GST-SIZ1 bound to 30 uL glutathione-Sepharose beads, washed, then 200 uL crude extract of His-HA-RACK1B, 1 h on ice; binding buffer 50 mM Tris-HCl pH 7.8, 200 mM NaCl, 1% Triton X-100, 10% glycerol; immunoblot; only the target purified
T2 sequence: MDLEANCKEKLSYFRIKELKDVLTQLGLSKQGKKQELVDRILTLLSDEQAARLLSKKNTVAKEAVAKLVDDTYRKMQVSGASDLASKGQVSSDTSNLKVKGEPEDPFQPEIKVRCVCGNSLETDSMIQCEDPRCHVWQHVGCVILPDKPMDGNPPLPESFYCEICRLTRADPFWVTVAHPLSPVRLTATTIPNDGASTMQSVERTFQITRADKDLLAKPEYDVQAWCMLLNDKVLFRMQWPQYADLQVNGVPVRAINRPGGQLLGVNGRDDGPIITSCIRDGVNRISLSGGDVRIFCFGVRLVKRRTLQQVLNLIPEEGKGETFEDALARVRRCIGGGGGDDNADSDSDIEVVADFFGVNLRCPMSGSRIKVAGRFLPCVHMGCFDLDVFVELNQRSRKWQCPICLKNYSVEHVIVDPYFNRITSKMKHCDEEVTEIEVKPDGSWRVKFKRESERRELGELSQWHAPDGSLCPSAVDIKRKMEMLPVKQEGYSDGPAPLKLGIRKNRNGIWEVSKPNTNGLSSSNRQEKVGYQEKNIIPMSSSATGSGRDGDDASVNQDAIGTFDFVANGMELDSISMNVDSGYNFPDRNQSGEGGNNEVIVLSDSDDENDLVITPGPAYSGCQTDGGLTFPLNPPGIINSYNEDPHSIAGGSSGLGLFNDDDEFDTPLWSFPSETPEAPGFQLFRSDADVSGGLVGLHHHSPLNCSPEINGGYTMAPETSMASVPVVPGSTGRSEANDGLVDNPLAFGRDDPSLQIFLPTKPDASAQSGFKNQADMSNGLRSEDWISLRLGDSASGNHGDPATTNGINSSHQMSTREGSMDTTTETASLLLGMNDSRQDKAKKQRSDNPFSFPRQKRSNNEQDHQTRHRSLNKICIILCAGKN

[1] = biological target: RACK1B (co-immunoprecipitation with HPY2) (Arabidopsis) (UniProt Q9C4Z6); test: co-IP; co-immunoprecipitation of RACK1B and HPY2 (Supplementary Fig. 2D); constructs and cells not described in the main text

- binding (GST-SCE1A (Arabidopsis)): binds
- binding (GST-SIZ1 (Arabidopsis)): binds
Molecule: His-HA-RACK1B (from UniProt Q9C4Z6 1-326)

- binding [1]: no binding
B1: HPY2 (enzyme, UniProt Q8GYH7 1-249)
chain: MASASSSDGVAGRIQNASLVLVSDNSSTLADIRKAVAMMKNIAVQLEKENQTDKVKDLENSVAELLDLHSDCNHRSTAIQSVANRYQPVEQLTDFKKLLDDEFTKLKATPSSVPQNDHLMRQFREAVWNVHHAGEPMPGDDDEDIVMTSTQCPLLNMTCPLSGKPVTELADPVRSMDCRHVYEKSVILHYIVNNPNANCPVAGCRGKLQNSKVICDAMLKFEIEEMRSLNKQSNRAEVIEDFTEDVDED

More lines, now with the values behind:

Molecule: His-HA-RAP2.6 (from UniProt Q7G1L2 1-192)
- binding (GST-RACK1B (Arabidopsis)): binds

Molecule: Myc-RACK1B (from UniProt Q9C4Z6 1-326)
- binding (HA-RAP2.6 (Arabidopsis)): binds
